Experimental data as given in the supplement of paper PMC11417369.
The list shows a part of the results.

What follows are sequences tested on PF3D7_0420300 AP2 domain 1 (GST-tagged) (assay: gcPBM binding intensity (ln(normalized median fluorescence intensity)); higher = stronger DNA binding).
In short: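 GST-tagged P. falciparum DNA-binding domains, expressed in E. coli (about 25 μg on average), were applied for 1 h to an Agilent 4 × 180k array of primer-extended double-stranded 36-bp intergenic genomic probes plus negative controls. The binding buffer was 1× PBS with 1% milk, 0.2 mg/ml BSA, 0.5% salmon testes DNA and 0.03% Triton X-100. Bound protein was detected with Alexa488 anti-GST antibody and scanned at 488 nm. Binding intensity is the highest Masliner-normalised natural-log median intensity across replicate spots of either probe orientation.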

Row | Sequence | gcPBM binding intensity (ln)
1 | ATATATATATTCCACACACACACAAAAAAAAAAAAA [CACACA_site3648] | 10.1
2 | TTTTTTTTTTTTTTTGCACACAGGGTGTAGGACAAG [CACACA_site2842] | 9.08
3 | CATTTGATAAGATACACACACAAGGAAAAAAATAAA [CACACA_site350] | 9.96
4 | TTATAATATCTATATATCTTTTACATTTATAAGTTT [CACACA_negctrl_site1473] | 9.18
5 | TATAATAATATTAACACACGTACAAAAGCAAACAAC [CACACA_site3494] | 10
6 | GTTATAGAAGCATTCACACACACACCCACATACACA [CACACA_site1465] | 10.1
7 | GAATGTTAACGTTGCACACAAAAAAAAAGTATACAT [CACACA_site2415] | 9.56
8 | AAACGATTACTGTGTACACACATAGTTATAAACATA [CACACA_site5195] | 9.48
9 | TTACATAATATATGTACACACGCAAATACTTAGAAT [CACACA_site320] | 9.55
10 | AGGATATGCAGACACACACACATATATATATATATA [CACACA_site2201] | 9.79
11 | TTTTTTAATAATAGGAAAATGAATATTATATCGAAT [TGCATGCA_negctrl_site543] | 8.99
12 | TTTTTTTTTTTTTCAAGTACATAACTTACCCCTTTT [XGTACX_site6207] | 8.72
13 | TTATATGCATAAAAACGTACAAAAATGTATTCATGT [XGTACX_site2215] | 9.3
14 | AAATAAAAACATAACAGTACAGTTAACATTTTTATA [XGTACX_site3479] | 9.32
15 | TATATATATATATATGTACACACATATATACCTTTC [CACACA_site8854] | 9.41
16 | CCAACATTTTTTAGAAGTACATTTTTATATTTATTA [XGTACX_site5179] | 9.1
17 | GATGGAAGGTGAAAGCGTACTTATTATAGTAATATA [XGTACX_site303] | 9.13
18 | AGGTACTTTTTTAAAACACACATATAATATATACAC [CACACA_site1065] | 9.5
19 | TGTAATAATCTTACATGTACATACATATATTATATA [XGTACX_site4012] | 9.23
20 | TACATTCATGTGTATTGTACAAACTATTTTATAATA [XGTACX_site7744] | 9.12
21 | TATATAATATATATAGTGCATAAGTTCAAAAGAATA [GTGCAC_site9805] | 9.21
22 | GCATATTTTATAATTTTACACACCATATAAAATAAT [CACACA_site8904] | 9.51

Row | Sequence | gcPBM binding intensity (ln)
23 | ACAATCCTAACGACATGTACAAATATATATATTTTT [XGTACX_site7335] | 9.2
24 | TACATATTTTTTATGTGTACATATTTTTTATGTGTA [XGTACX_site443] | 9.2
25 | TTATATATTTATATTTGTACGTATAAATTTTTTTTT [XGTACX_site2833] | 9.09
26 | AAACAAAGAAAGAACACACATACACAATATACCTAC [CACACA_site2835] | 9.99
27 | ATATATGTGTATGTATGTACTCATTTTTGTATATAT [XGTACX_site490] | 9.47
28 | ATAATGATATATTATAAACACACAAAGATGAATATA [CACACA_site8914] | 9.59
29 | TATTTTGAAAAAGTTGCACACAAAATTTAAAAAAAA [CACACA_site8470] | 9.09
30 | CATTTAAATTATAAGTGTACACGATCATATTTCATC [XGTACX_site349] | 9.23
31 | TAAAAAATAAGATATACACACATATATATATATATA [CACACA_site2324] | 9.32
32 | ATTCACATACATTACTTACACACCATATTAATATAT [CACACA_site459] | 9.69
33 | AAAAAAAAAAAAAAGGAACACACAAGTAACAATAAA [CACACA_site8792] | 9.56
34 | TAACATATTAATAACATATTTATAATATATTAATAA [TGCATGCA_negctrl_site243] | 8.88
35 | AATTATACTTCCTTCACACAGTTACATCATATATTA [CACACA_site5942] | 9.6
36 | AAATAAAATAAAAACATGCACACTTTATTTTTTTTA [CACACA_site2800] | 9.19
37 | AGAAGTTTAAAAAGCACACAAAAAAAAAAAAAAAGA [CACACA_site3309] | 9.47
38 | AAAAATACCTGAATATGTACATATGATCAATGGGCC [XGTACX_site887] | 9.61
39 | ATTCATATATATTATACACACACATATATAAATATA [CACACA_site8228] | 9.74
40 | AAAATCGTGTTCTGAATACACACTAATACAAAGTTG [CACACA_site3985] | 9.21
41 | TAAAAATATAAATTTTGTACGTAAAAAATGGTTCTT [XGTACX_site1506] | 9.23
42 | TGACCGTTTTAAGAGTGTACAAAAAAAAAAAAAAAA [XGTACX_site4141] | 8.5
43 | TATTCTATATAATAATGTACGTGATTTAAATTTTCA [XGTACX_site6650] | 9.01
44 | AAAAATATTTTGGTTTGTACATATATTTTTACAATA [XGTACX_site8691] | 9.16
